Assay results published in patent US9353399B2, “Two-photon absorbing compound with methods of synthesis and use” (POSTECH ACADEMY-INDUSTRY FOUNDATION, priority 2012, dated 2016).
One block for each compound: values may come before it.

Assays:
[1] = test system: Chromaffin cell; assay: Two-photon microscope cell fluorescence imaging, Chromaffin cell; format: cell-based; conditions: for two-photon fluorescence of Chromaffin cell treated with inhibitor, then Chemical Formula 3: 100 μM inhibitor, then 100 μM Chemical Formula 3, two-photon excitation 900 nm; for two-photon cell fluorescence image: Chromaffin cell, 100 μM, 1 hour, two-photon excitation 900 nm
Excerpt: (§1) The present inventors observed fluorescence changes in the C6 glioma cell and the Chromaffin cell treated with the compound 1 and the compound of Chemical Formula 3, respectively, and a fluorescence change treated with the MAO enzyme inhibitor through a two-photon electron microscope, and the fluorescence changes were illustrated in FIG. 12. The preparing process of the cells and the fluorescence measuring method were the same as those in Example 8, and the two-photon electron microscope was used in the fluorescence observation.
(§2) The two-photon electron microscope was configured by an upright microscope (BX51, Olympus) and a 20-fold objective lens (XLUMPLFLN-W, NA 1.0 water immersion, Olympus), and a Ti:Sapphire laser (Chameleon Ultra, Coherent) was used.

[2] = test system: Chromaffin cell; assay: One-photon microscope cell fluorescence imaging, Chromaffin cell; format: cell-based; conditions: for one-photon fluorescence of Chromaffin cell treated with inhibitor, then Chemical Formula 3: 100 μM inhibitor, then 100 μM Chemical Formula 3, 1 hour; for one-photon cell fluorescence image: Chromaffin cell (MAO B overexpressed), 100 μM, 1 hour
Excerpt: (§3) The present inventors observed a fluorescence change in the C6 glioma cell and the Chromaffin cell treated with the compound 1 and the compound of Chemical Formula 3, respectively, and a fluorescence change treated with the MAO enzyme inhibitor through an one-photon electron microscope, and the fluorescence changes were illustrated in FIG. 11. The C6 glioma cell is a representative cell in which the MAO enzyme is not expressed (Aw, J. et al., Chem. Asian. J. 2010, 5, 1317.), and the Chromaffin cell is a cell known that the MAO B is overexpressed (Youdim, M. B. H. et al., Science 1984, 224, 619.).
The C6 glioma cell and the Chromaffin cell were prepared with the density of 2×10^6 cells at a dish of 60 mm (Park, Y. et al., Endocrinology 2006, 147, 1349). Each cell was kept under a solvent condition of DMEM (Hyclone), 10% of fetal bovine serum (Hyclone), and 1% of antibiotics (WelGENE) and a condition of 5% CO2-95% air at 37° C.
(§4) Cell fluorescence imaging was measured by using a fluorescence imaging microscope (Axiovert 200M, Carl Zeiss) after 100 μM of the compound 1 and the compound of Chemical Formula 3 were treated in respective cell dishes and kept for 1 hour under the same keeping condition. […] The excitation wavelength was 435 nm to 455 nm, and the emission wavelength was recorded in 555 to 575 nm.
(§5) In the case of the cell fluorescence imaging using the inhibitor, first, 100 μM of the inhibitor was treated in each cell dish, and the keeping process in the same condition as above was performed. Subsequently, 100 μM of the compound of Chemical Formula 3 was treated, and kept for 1 hour in the same condition, and then the fluorescence was measured.

[3] = Optical characteristics (excitation, emission, quantum yield, two-photon absorption cross-section) in ethanol; conditions: 10 μM in ethanol solvent
[4] = test system: C6 glioma cell; assay: One-photon microscope cell fluorescence imaging, C6 glioma cell; format: cell-based; conditions: C6 glioma cell (MAO not expressed), 100 μM, 1 hour
Excerpt: as §3, with “619.). […]” for “619.).”
as §4, §5

[5] = test system: C6 glioma cell; assay: Two-photon microscope cell fluorescence imaging, C6 glioma cell; format: cell-based; conditions: 100 μM, 1 hour, two-photon excitation 900 nm
Excerpt: as §1, §2

[6] = molecular target: T1, MAO A (Homo sapiens, UniProt P21397); assay: MAO enzyme inhibitor experiment with compound of Chemical Formula 3 as fluorescent probe (MAO A); format: biochemical; conditions: 70 μM inhibitor, 10 μg/mL MAO A, 2 hours at 37° C., then 70 μM Chemical Formula 3, 3 hours
T1 sequence (P21397 1-527): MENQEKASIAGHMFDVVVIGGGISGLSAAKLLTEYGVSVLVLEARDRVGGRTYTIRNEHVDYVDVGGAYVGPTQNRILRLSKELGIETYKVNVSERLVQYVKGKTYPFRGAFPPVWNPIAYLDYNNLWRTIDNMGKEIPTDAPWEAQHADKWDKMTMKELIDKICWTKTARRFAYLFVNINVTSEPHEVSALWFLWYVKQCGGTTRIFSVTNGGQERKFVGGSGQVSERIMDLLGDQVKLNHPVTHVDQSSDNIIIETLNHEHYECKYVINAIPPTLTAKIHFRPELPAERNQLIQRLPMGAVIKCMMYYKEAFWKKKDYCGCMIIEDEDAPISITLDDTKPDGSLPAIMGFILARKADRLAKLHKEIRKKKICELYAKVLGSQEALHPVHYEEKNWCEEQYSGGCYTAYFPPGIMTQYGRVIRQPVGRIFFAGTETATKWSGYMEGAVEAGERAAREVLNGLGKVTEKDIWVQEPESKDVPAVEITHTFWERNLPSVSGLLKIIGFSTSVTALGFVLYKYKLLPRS
Protocol: The present inventors performed enzyme activity measurement and an enzyme inhibitor experiment using a 96-well fluorescence assay plate. […] Thereafter, 70 μM of the compound of Chemical Formula 3 was treated, and fluorescence was observed by a unit of 10 minutes for 3 hours. The buffer solution and the fluorescence observation method were the same as Example 4.

[7] = Fluorescence change characteristic for mercury ions; conditions: 3 μM probe, PBS pH 7.4 with 5% DMSO
Protocol: The present inventors performed a fluorescence emission experiment of the compound 13 in a buffer solution (PBS, pH 7.4 with 5% DMSO) at a concentration of 3 μM. In the fluorescence measurement, the Photon Technical International Fluorescence System was used. […] The fluorescence graph was measured with an excitation wavelength of 448 nm.

[8] = molecular target: T2, MAO B enzyme (Homo sapiens, UniProt P27338); assay: MAO enzyme kinetic assay, 96-well fluorescence assay plate (MAO B); format: biochemical; conditions: probe as substrate, 37° C., 3 hours, HEPES pH 7.4
T2 sequence (P27338 1-520): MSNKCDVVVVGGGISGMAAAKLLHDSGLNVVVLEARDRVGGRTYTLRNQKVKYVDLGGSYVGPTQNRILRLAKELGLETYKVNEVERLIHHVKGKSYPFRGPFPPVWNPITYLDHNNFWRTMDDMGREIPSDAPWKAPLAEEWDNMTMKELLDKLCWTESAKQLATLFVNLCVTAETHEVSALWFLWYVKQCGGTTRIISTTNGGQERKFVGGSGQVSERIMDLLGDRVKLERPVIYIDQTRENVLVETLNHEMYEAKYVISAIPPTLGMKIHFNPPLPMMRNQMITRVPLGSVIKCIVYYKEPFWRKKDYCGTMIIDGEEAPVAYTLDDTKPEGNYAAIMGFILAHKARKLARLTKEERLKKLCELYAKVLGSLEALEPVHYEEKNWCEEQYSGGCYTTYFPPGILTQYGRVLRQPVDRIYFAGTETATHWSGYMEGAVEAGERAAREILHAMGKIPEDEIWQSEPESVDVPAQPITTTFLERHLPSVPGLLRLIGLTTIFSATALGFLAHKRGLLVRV
Protocol: (§6) The present inventors performed enzyme kinetic assays using a 96-well fluorescence assay plate. The concentration of the compound of Chemical Formula 3 was used from 0 μM to 800 μM, MAO A and B enzymes were used with 10 μg/mL. The buffer solution was the same as Example 4, and the 96-well fluorescence assay plate was kept for 3 hours at 37° C. After 3 hours, the fluorescence intensity was measured by a microplate spectrofluorometer (VICTOR 3 VTM multilabel counter, Perkin Elmer-Wellesley, Mass., USA). The excitation wavelength was 465 nm, and the emission wavelength was recorded in 600 nm. Michaelis-Menten constants were calculated from an enzyme activity graph using an Origin program.
(§7) The present inventors used the compounds at the concentration corresponding to the Michaelis-Menten constants (Chemical Formula 3/MAO A; 70 μM, Chemical Formula 4/MAO B; 252 μM, Chemical Formula 3/MAO B; 75 μM, Chemical Formula 4/MAO B; 210 μM), and performed a fluorescence emission experiment of 50 μg/mL of the MAO enzyme in a buffer solution (100 mM HEPES, pH 7.4 with 5% glycerol and 1% DMSO). In the fluorescence graph measurement, the Photon Technical International Fluorescence system was used. As a cell for fluorescence measurement, a standard quartz cell having a width of 1 cm was used. […]

[9] = molecular target: T1, MAO A; assay: MAO enzyme kinetic assay, 96-well fluorescence assay plate (MAO A); format: biochemical; conditions: probe as substrate, 37° C., 3 hours, HEPES pH 7.4
Protocol: as §6, §7

SMILES: C#CCN(C)Cc1ccccc1 [Pargyline, reference compound]
two-photon fluorescence of Chromaffin cell treated with inhibitor, then Chemical Formula 3 [1]: the generation of the IminoPOS was not observed
one-photon fluorescence of Chromaffin cell treated with inhibitor, then Chemical Formula 3 [2]: the fluorescence was not observed

SMILES: O=c1cc(C(F)(F)F)c2cc3c4c(c2o1)CCCN4CCC3 [coumarin 153, reference compound]
emission wavelength [3]: 548 nm
excitation wavelength [3]: 425 nm

emission wavelength [3]: 585 nm
excitation wavelength [3]: 446 nm
quantum yield (ΦF) ([3]; based on Rhodamine 6G): 0.67
two-photon absorption cross-section (GM) ([3]; based on Rhodamine 6G): 126 GM
SMILES: CN(C)c1ccc2cc3cc(C#N)c(=N)oc3cc2c1 [compound 1, 8-(dimethylamino)-2-imino-2H-benzo[g]chromene-3-carbonitrile]
two-photon cell fluorescence image [1]: bright two-photon cell images
one-photon cell fluorescence image [4]: bright one-photon cell images
one-photon cell fluorescence image [2]: bright one-photon cell images
two-photon cell fluorescence image [5]: bright two-photon cell images

inhibition of MAO A activity (increase of fluorescence signals) [6]: effectively inhibited
SMILES: O=C(NCCN1CCOCC1)c1ccc(Cl)cc1 [Moclobemide, reference compound]
two-photon fluorescence of Chromaffin cell treated with inhibitor, then Chemical Formula 3 [1]: the generation of the IminoPOS was observed
one-photon fluorescence of Chromaffin cell treated with inhibitor, then Chemical Formula 3 [2]: normally generated the IminoPOS to provide the fluorescence

SMILES: CC(=O)c1ccc2cc(N(C)C)ccc2c1 [acedan, 2-acyl-6-dimethylamino-naphthalene, reference compound]
emission wavelength [3]: 501 nm
excitation wavelength [3]: 365 nm

SMILES: C=COc1cc2cc(N(C)C)ccc2cc1C=C(C#N)C#N [compound 13, 2-((6-(dimethylamino)-3-(vinyloxy)naphthalene-2-yl)methylene)malononitrile]
fluorescence change with time after adding mercuric ions ([7]; 3 μM mercuric ions): the fluorescence was increased as time passed
fluorescence change with increasing concentration of mercuric ions (HgCl2) ([7]; excitation 448 nm): the fluorescence was increased

Michaelis-Menten constant [8]: 75 µM
Michaelis-Menten constant [9]: 70 µM
SMILES: CN(C)c1ccc2cc(C=C(C#N)C#N)c(OCCCN)cc2c1 [Chemical Formula 3, 2-{[3-(3-aminopropoxy)-6-(dimethylamino)naphthalene-2-yl]methylene}malononitrile]
two-photon cell fluorescence image [1]: the generation of the IminoPOS was observed
one-photon cell fluorescence image [4]: the fluorescence was not shown
one-photon cell fluorescence image [2]: a bright cell image was provided
two-photon cell fluorescence image [5]: the fluorescence of the IminoPOS was not observed
